# Experimental data: publication PMC4336329 (PLoS ONE, 2015)
# The whole screen tested about 310,000 compounds, of which about 2,200 (0.71%) showed an effect of 50% or more. Effects have a minus sign here. The list shows a part of the results.
# Molecular target: human ether-à-go-go-related gene (hERG) potassium channel (human, UniProt Q12809)
# Assay: primary screen, population patch clamp on CHO cells stably expressing hERG
# Sequence of human ether-à-go-go-related gene (hERG) potassium channel (Q12809 whole entry, looked up): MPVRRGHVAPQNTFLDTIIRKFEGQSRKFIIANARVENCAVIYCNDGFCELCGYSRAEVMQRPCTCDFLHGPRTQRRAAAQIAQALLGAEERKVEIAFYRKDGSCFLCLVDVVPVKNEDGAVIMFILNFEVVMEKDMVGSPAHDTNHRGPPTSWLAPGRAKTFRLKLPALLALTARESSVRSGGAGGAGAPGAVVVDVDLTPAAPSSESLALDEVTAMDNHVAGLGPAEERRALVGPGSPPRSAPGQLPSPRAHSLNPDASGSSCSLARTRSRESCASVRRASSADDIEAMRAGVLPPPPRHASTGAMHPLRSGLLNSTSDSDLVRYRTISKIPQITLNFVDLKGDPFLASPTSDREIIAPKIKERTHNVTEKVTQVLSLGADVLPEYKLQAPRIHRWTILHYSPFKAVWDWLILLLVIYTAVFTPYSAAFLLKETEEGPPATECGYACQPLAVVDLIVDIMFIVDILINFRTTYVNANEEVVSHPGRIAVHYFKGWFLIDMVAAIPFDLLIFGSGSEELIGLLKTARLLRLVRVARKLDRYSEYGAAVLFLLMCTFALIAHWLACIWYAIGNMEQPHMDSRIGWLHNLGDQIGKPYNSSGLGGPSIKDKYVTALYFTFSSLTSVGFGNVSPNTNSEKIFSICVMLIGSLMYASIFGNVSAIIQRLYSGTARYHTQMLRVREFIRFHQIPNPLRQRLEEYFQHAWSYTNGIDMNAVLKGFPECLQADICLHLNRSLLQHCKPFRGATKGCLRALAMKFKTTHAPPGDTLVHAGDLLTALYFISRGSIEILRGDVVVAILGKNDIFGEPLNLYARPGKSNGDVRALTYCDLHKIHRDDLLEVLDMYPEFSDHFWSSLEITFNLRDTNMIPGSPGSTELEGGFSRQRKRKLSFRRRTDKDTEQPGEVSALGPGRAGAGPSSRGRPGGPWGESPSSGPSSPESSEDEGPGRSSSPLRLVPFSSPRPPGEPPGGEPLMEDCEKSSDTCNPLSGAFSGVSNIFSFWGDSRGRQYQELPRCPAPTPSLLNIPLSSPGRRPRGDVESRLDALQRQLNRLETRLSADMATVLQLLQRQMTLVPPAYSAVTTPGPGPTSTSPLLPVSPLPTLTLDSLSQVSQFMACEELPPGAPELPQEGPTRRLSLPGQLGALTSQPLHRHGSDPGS
row,Compound,"hERG current change (%, negative = inhibition) at 1uM [%]"
1,CC1CCN(Cc2c(O)ccc3c2O/C(=C\c2ccco2)C3=O)CC1,0.393
2,CN(C)CCNc1c2c(c(C#N)c3nc4ccccc4n13)CCCC2,6.94
3,C=CCc1cc(C)ccc1OCCOCCn1ccnc1.O=C(O)C(=O)O,-5.94
4,CCn1nc(C)c(CN2CCCCC2C(=O)Nc2ccc(Oc3cccnc3)cc2)c1C (centres unmarked),3.19
5,Cc1ccc(S(=O)(=O)N2CCC(C(=O)N3CC(C)OC(C)C3)CC2)cc1 (centres unmarked),10.2
6,COc1ccc(NC(=O)COC(=O)C2CC(=O)N(CCc3ccc(OC)c(OC)c3)C2)cc1Cl (centres unmarked),13.4
7,Cc1ccc(-n2c(C)nnc2SCC(=O)N(C)c2c(N)n(Cc3ccccc3)c(=O)[nH]c2=O)cc1,6.87
8,COc1cc(C=O)ccc1OCCCOc1ccc([N+](=O)[O-])cc1,9.56
9,COc1ccc2c(CC(=O)Nc3nccs3)coc2c1,14
10,COc1ccc(C)cc1NC(=O)C1CCN(S(=O)(=O)c2cccc3cccnc23)CC1,12.7
11,O=C(CCCN1C(=O)/C(=C\c2cccc(Br)c2)SC1=S)Nc1cccnc1,16
12,Cc1cc(C)cc(SCc2noc(C(=O)NCc3ccccc3)c2C(=O)NCc2ccccc2)c1,17
13,Cc1ccccc1Nc1c(F)c(F)c(F)c(F)c1C(=O)O,11.4
14,CCCC1C(c2ccco2)NC(c2ccco2)CC1(C)O.O=C(O)C(=O)O (centres unmarked),2.61
15,CCOc1cc(/C=C/C(=O)O)ccc1OCCO,8.1
16,CC(C)CCNC(=O)C(CC(C)C)N(Cc1ccc2c(c1)OCO2)C(=O)c1snc(C(N)=O)c1N (centres unmarked),3.45
17,CCOc1ccccc1NC(=O)NS(=O)(=O)c1ccc(C)cc1,13.3
18,COc1ccc(C)cc1NC(=O)CN(C)S(=O)(=O)c1ccc2c(c1)CCCN2C(C)=O,11.6
19,CC(C)OCCCN1CN(S(=O)(=O)c2cccc(Cl)c2)c2nc3ccccc3nc21,1.59
20,COc1ccc(C(c2nnnn2Cc2ccccc2)N2CCN(c3nc4ccccc4s3)CC2)cc1 (centres unmarked),9.85
21,CCOc1ccccc1CNC(=O)CCNC(=O)Cn1ccc2ccccc2c1=O,3.23
22,CS(=O)(=O)Nc1ccc(N2CCCCC2)c(Cl)c1,5.33

row,Compound,"hERG current change (%, negative = inhibition) at 1uM [%]"
1,O=C(CSc1cccs1)NCCc1ccccc1,13.4
2,O=C(CN1C(=O)CSC1=O)c1ccccc1,6.5
3,C/C=C/c1ccc(OCC(O)CNCC(c2ccc(OC)cc2)N(C)C)c(OC)c1.O=C(O)C(=O)O (centres unmarked),6.2
4,CCOc1ncccc1C(=O)OCC(=O)Nc1nnc(-c2ccccc2)o1,0.21
5,CCn1c(SCc2nc3scc(-c4ccccc4)c3c(=O)[nH]2)nnc1-c1cccs1,-2.8
6,Cc1cccc(N2C(=O)c3cccc4c(N5CCCCC5)c([N+](=O)[O-])cc(c34)C2=O)c1C,6.41
7,O=C(COc1ccc(Cl)cc1)N/N=C/CCc1ccccc1,3.02
8,CC1Oc2ccccc2N(CC(=O)NCc2cccs2)C1=O (centres unmarked),5.16
9,Cc1cccc(C)c1NC(=O)CN(C)C(=O)c1ccc2c(=O)n3c(nc2c1)CCC3,11.9
10,O=[N+]([O-])C1C(c2ccccc2)=NOC1c1ccccc1O (centres unmarked),12.8
11,O=C(CCCN1C(=O)/C(=C/c2cccs2)SC1=S)Nc1ccc(C(=O)O)cc1,9.33
12,O=C(Nc1ccc2c(c1)CCC2)c1ccc(Cl)nc1,1.39
13,COc1cccc(N2CCN(C(=O)CCCCCn3c(=S)[nH]c4cc5c(cc4c3=O)OCO5)CC2)c1,17.8
14,Cc1ccc(-c2nn(-c3ccccc3)cc2CN(C)C(=O)CCC(=O)O)cc1C,15.3
15,Cc1cc2cc(C)c3nnc(SCC(=O)Nc4ccc(S(=O)(=O)N5CCCCC5C)cc4)n3c2cc1C (centres unmarked),13.2
16,O=C(N/N=C/c1cc2c(cc1Br)OCO2)c1c[nH]c2ccccc12,16.1
17,CCn1cc([N+](=O)[O-])c(C(=O)N2CCCCCC2)n1,12.7
18,Cc1ccc(-c2noc(CCC(N)=O)n2)cc1,0.49
19,COc1ccc(CCCc2nnc(SCC(=O)NN)o2)cc1,13.9
20,COc1ccc(/C=N/Nc2ccccn2)c(OC)c1OC,8.66
21,O=C(c1ccccc1)c1c2c(cc3sc4ccccc4[n+]13)-c1cccc3cccc-2c13.[Br-],-47.1
22,CCCC(=O)NNC(=O)CCC(=O)NCc1ccccc1,14.5

row,Compound,"hERG current change (%, negative = inhibition) at 1uM [%]"
1,O=C(NCCc1ccccc1)c1ccc2c(c1)OCCCO2,16.7
2,CN(CCO)c1cc(N(C)CCO)c([N+](=O)[O-])cc1[N+](=O)[O-],11.8
3,Cc1nnc(N/N=C/C2CC=CCC2)[nH]c1=O (centres unmarked),9.52
4,Cn1c(NC(=O)C[n+]2cc(-c3ccc(Cl)c(Cl)c3)n3c2CCC3)cc(=O)n(C)c1=O.[Cl-],13.4
5,Cc1cc(=O)[nH]c(N/N=C/c2ccc(N(C)C)cc2)n1,3.37
6,Cc1ccc(NCC(O)C(O)C(O)CO)cc1C (centres unmarked),13.8
7,Nc1nccnc1C(=O)OCC(=O)N1CCN(S(=O)(=O)c2ccc(Cl)cc2)CC1,-10.1
8,CC1CCCCC1NC(=O)CSc1nnc(-c2ccccc2)n1N (centres unmarked),11.7
9,O=C(Nc1ccc(F)cc1)c1cc(-c2ccccn2)nc2c(Cl)cccc12,12.7
10,COc1cccc(OCC(=O)Nc2ccncc2)c1,11.9
11,CC1CCC2(CC1)N=C(N)Nc1nc3ccccc3n12 (centres unmarked),-7.03
12,Cc1cc2[nH]c(=O)c(=O)[nH]c2cc1S(=O)(=O)N1CCN(c2ccccc2F)CC1,9.75
13,Cc1ccc(-n2nnnc2-c2cccs2)cc1[N+](=O)[O-],8.88
14,NC(=O)NOCc1cccc(Cl)c1,12.7
15,O=c1c2ccccc2cnn1Cc1ccc(Cl)c(Cl)c1,14.6
16,CN(c1ccccc1)c1nc(-n2ccnc2)nc(-n2ccnc2)n1,-21.3
17,Cc1noc(C)c1C(=O)Nc1sc(C)c(-c2ccccc2)c1C#N,5.63
18,CCOC(=O)CNC(=O)CNC(=O)c1ccc(OC)cc1,10.3
19,CN(C)C(/C=C/Nc1ccc(Br)cc1)=C(C#N)C#N,-3.22
20,O=C(c1ccc2c(c1)OCO2)N1CCC2(CC1)Oc1ccc(Cl)cc1C(=O)C21CC(c2cccnc2)=NO1 (centres unmarked),-1.76
21,COc1ccc2[nH]c(=O)c(CN(C(=O)C(C)C)c3ccccc3OC)cc2c1,8.48
22,CC(=O)NCCNC(=O)C1CCCCN1S(=O)(=O)c1ccccc1 (centres unmarked),0.532

row,Compound,"hERG current change (%, negative = inhibition) at 1uM [%]"
1,COc1cccc(C(=O)OCC(=O)c2c[nH]c3ccccc23)c1OC,9.28
2,CC(=O)n1cc(/C=N/NC(=O)c2cccc(O)c2)c2ccccc21,13.7
3,Cc1ccc(S(=O)(=O)N(CC(=O)NCc2ccccn2)c2ccc(Cl)cc2)cc1,-0.861
4,Cc1ccc(Cl)cc1NC(=O)C1CCCN(S(=O)(=O)c2c(C)noc2C)C1 (centres unmarked),5.1
5,O=C(CSc1nnc(Cc2cccs2)n1Cc1ccco1)Nc1cc(Cl)cc(Cl)c1,-0.965
6,CC1CCN(Cc2nc3c(c(=O)n(C)c(=O)n3C)n2CCc2ccccc2)CC1,6.46
7,CCCC(=O)Nc1ncnc2c1ncn2[C@@H]1O[C@@H]2OP(=O)([O-])OC[C@H]2[C@H]1OC(=O)CCC.O.[Na+],-0.145
8,O=C(Nc1cc(C(F)(F)F)ccc1Cl)c1cc(C2CC2)on1,17.4
9,CC(C)N1CCN(C(=O)c2ccc([N+](=O)[O-])cc2)CC1,-5.58
10,COc1ccc(C(C#N)Nc2ccc(C)cc2)cc1 (centres unmarked),11.6
11,CC(C)(C)/C=N/NC(=O)C1CC1,12.8
12,Cc1nccn1S(=O)(=O)c1ccc(Br)cc1Br,7.99
13,CC(=O)c1ccccc1N(C(=O)c1ccco1)C(C(=O)NC1CCCC1)c1ccc(C)cc1 (centres unmarked),9.35
14,O=c1oc2ccccc2c(N2CCCCC2)c1CN1CCCCC1,4.58
15,O=C(CSc1nnc(CNc2ccc(F)cc2)n1CC1CCCO1)Nc1ccccc1 (centres unmarked),-5.15
16,Cc1ccc(CS(=O)Cc2ccc(C(=O)NCc3ccc(OC(C)C)cc3)o2)cc1 (centres unmarked),10.3
17,COc1cc(C(=O)NC(=S)N(CCc2ccccc2)CCc2ccccc2)cc(OC)c1OC,3.89
18,Cc1ccc(C)c(Cn2nnc3c(=O)[nH]c(C4CCCN(C(=O)CC(C)C)C4)nc32)c1 (centres unmarked),4.11
19,CCOc1ccc(CNS(=O)(=O)c2c(C)nc3sccn3c2=O)cc1OC,-33.9
20,COc1ccc(CCN(C)C(=O)C(CCSC)NC(=O)c2ccco2)cc1OC (centres unmarked),14.6
